Source: PubChem BioAssay AID1347417 (National Center for Advancing Translational Sciences (NCATS), 2020)
The whole screen tested about 120,000 compounds, of which about 5,300 (4.4%) were called active. The shares of active, inactive and inconclusive entries below differ from those in the screen. Calls follow the shape of the dose curve; as a rule, active = well fitted inhibition curve with a large enough effect; inconclusive = small, poorly fitted or top-dose-only effect; inactive = no such curve, though single readings can be large or run the other way. A potency beside an inconclusive call is a rough fit, not a confirmed value.

Assay: qHTS Primary assay for Inhibitors of Plasmodium falciparum Dd2 growth in vitro; also: nearly all actives have a fitted effect of over 65% in size
Conditions: P. falciparum Dd2 growth, SYBR Green, 72 h; series mostly up to 28.9 µM
Outline: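 Infected erythrocytes (Dd2, 0.3% parasitemia, 2.5% hematocrit final) are added to compound in RPMI-1640/Albumax II medium, grown 72 h at 37C in low oxygen, then lysed with saponin/Triton-X containing SYBR Green and read by fluorescence.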
Potency is read from the fitted curve at half-maximal effect; tags tell the direction and shape of the fitted curve.

| Structure (SMILES) | Potency |
| --- | --- |
| CC(C)c1nc2ccc(C(=O)NCCCN3CCN(c4ccccc4)CC3)cc2o1 | inconclusive: 10 µM [inhibitor, single point] |
| O=C1CN(C(=O)c2ccc(S(=O)(=O)N3CCCC3)cc2)C(c2ccccc2)c2cc(Cl)ccc2N1 (configuration not stated) | inconclusive: 17.8 µM [inhibitor, single point] |
| O=C(O)c1cccc(C2CCCN(C(=O)c3ccccc3-n3cccn3)C2)c1 (configuration not stated) | inconclusive: 0.178 µM [inhibitor, full curve] |
| CN(C)c1ccc(CN[C@H]2CC(C)(C)[C@@H]3C[C@@](C)(O)CC[C@]23CCC(=O)N2CCOCC2)cc1 | inconclusive: 11.2 µM [inhibitor, partial curve, poor fit] |
| COc1cccc(-c2ccccc2NC(=O)C2CCN(Cc3ccccc3F)CC2)c1 | inactive |
| CC(=O)NCC(=O)N1Cc2ccccc2CC2(CCCN(C)C2)C1 (configuration not stated) | inactive |
| CN1CCC(C(=O)N2Cc3ccccc3CC3(CCCCN3Cc3ccncc3)C2)CC1 (configuration not stated) | active: 8.91 µM |
| COCCNC(=O)C1CCN(C(=O)C2CN(c3ccc(OC)cc3)C(=O)N2)C1 (configuration not stated) | inactive |
| Cc1ccc2c(C(=O)NCc3cc(F)cc(F)c3)cc(NC(=O)C(C)C)cc2n1 | inactive |
| COc1ccc(CN2CCc3oc(C)c(C(=O)NC4CCN(C)CC4)c3C2)cc1 | active: 10 µM |
| CN(C)C[C@@H]1CN(c2ccncn2)C[C@H]1NC(=O)c1ccc(Cl)cc1 | inconclusive: 7.94 µM [inhibitor, partial curve, poor fit] |
| COc1ccc(N2CC3CCC(C2)N3Cc2ccccc2)cc1 | inactive |
| COc1ccccc1CNc1ncnc2c1c(-c1ccccc1)cn2-c1ccc(Br)cc1 | inconclusive: 17.8 µM [inhibitor, single point] |
| COC(=O)[C@@H]1Cc2c([nH]c3ccccc23)[C@H]2C[C@@H](N3CCCCC3)C[C@@H](c3ccccc3F)N21 | active: 3.98 µM |
| COc1ccc(CC(=O)N(C)C2CCc3ccccc3C2)cc1 (configuration not stated) | inconclusive: 11.2 µM [inhibitor, single point] |
| COc1cc2c(=O)c(C(=O)c3ccc(F)cc3)cn(Cc3cccc(F)c3)c2cc1OC | inconclusive: 11.2 µM [inhibitor, partial curve] |
| Cc1ccc(C(=O)NCCC(C)C)cc1NC(=O)c1nsc2ccccc12 | inconclusive: 17.8 µM [inhibitor, single point] |
| Cc1ccc(CN2CCOc3ccc(C(=O)NCc4ccccc4F)cc3C2)o1 | inactive |
| O=C(Cc1ccc(F)cc1)N1CCC(c2nn(-c3ccccc3)c(=O)[nH]2)CC1 | inactive |
| COc1ccc(NC(=O)c2ccc3c(c2)C2(CCCN(C)C2)CN3Cc2cccnc2)cc1 (configuration not stated) | inconclusive: 0.0708 µM [inhibitor, full curve, poor fit] |
| CN(C)c1cccc(-c2cnc(Nc3ccc(N4CCOCC4)cc3)c3c2CCO3)c1 | inconclusive: 10 µM [inhibitor, partial curve, poor fit] |
| Cc1cccc(NC(=O)N2CCC3(C2)C(=O)N(C)c2ccccc23)c1 (configuration not stated) | inconclusive: 10 µM [inhibitor, single point] |
| O=C(NCc1noc(Cc2cccs2)n1)C1NCCc2[nH]cnc21 (configuration not stated) | inactive |

| Structure (SMILES) | Potency |
| --- | --- |
| COc1ccc(-c2noc(-c3nnn4c3COC(c3ccc(F)cc3)C4)n2)c(OC)c1 (configuration not stated) | inactive |
| CN(C)CCNC(=O)c1ccc2c(c1)C1(CCCN(CC3CC3)C1)CN2C (configuration not stated) | inactive |
| COc1cccc(N2C(=O)NC(=NC3CCCCC3)C23CCN(Cc2ccc(N(C)C)cc2)C3)c1 (configuration not stated) | inconclusive: 7.08 µM [inhibitor, partial curve, poor fit] |
| CC(C)c1ccc(S(=O)(=O)c2cn(CC(=O)Nc3ccc(F)cc3)c3ccccc3c2=O)cc1 | inconclusive: 17.8 µM [inhibitor, single point] |
| Cc1ccc(S(=O)(=O)N2CCN(C)C3(CCC(=O)N(C)CC3)C2)cc1F (configuration not stated) | inactive |
| CC(=O)Nc1ccc(CN2CCC3(CC2)CC(NC(C)=O)c2ccccc2O3)cc1 (configuration not stated) | inactive |
| COc1ccc(CCNC(=O)C(=O)Nc2ccc(C)c(C)c2)cc1 | inactive |
| CCOCCOc1cccc(C(=O)N2C[C@H](C3CC3)[C@@H](N)C2)c1 | inactive |
| Cc1cn2nc(C(=O)Nc3ccc(F)c(F)c3)cc2c(N(C)Cc2ccccc2)n1 | inconclusive: 3.98 µM [inhibitor, partial curve, poor fit] |
| Cc1ccc(C2Cn3nnc(-c4noc(-c5cc(F)ccc5Cl)n4)c3CO2)cc1 (configuration not stated) | inconclusive: 17.8 µM [inhibitor, single point] |
| CCN(CC)C(=O)C[C@@H]1CCNC[C@@H]1Cc1cc(-c2ccc(C(C)(C)C)cc2)on1 | active: 4.47 µM |
| Cc1ccc(S(=O)(=O)c2c(Nc3ccc(C)c(C)c3)sc(C(=O)c3ccc4c(c3)OCO4)c2N)cc1 | inconclusive: 11.2 µM [inhibitor, single point] |
| Cc1nn(C)cc1CN1C[C@@H](COCC2CC2)[C@H](c2ccccn2)C1 | inconclusive: 15.8 µM [inhibitor, single point] |
| COCCOc1ccc(C(=O)N[C@@H]2CN(C(=O)Nc3ccc(OC(F)(F)F)cc3)CCC[C@H]2O)cc1 | inconclusive: 4.47 µM [inhibitor, full curve, poor fit] |
| C[C@@H](N)C(=O)N1CCOc2c(O)cc(-c3ncc(C(F)(F)F)cc3Cl)cc2C1 | inconclusive: 10 µM [inhibitor, single point] |
| O=C1NC(=NC2CCCCC2)C2(CCN(CC3CCCCC3)C2)N1c1cccnc1 (configuration not stated) | inconclusive: 12.6 µM [inhibitor, single point] |
| COc1cc(CNCCSc2nnnn2C)ccc1OCc1ccccc1C | inconclusive: 17.8 µM [inhibitor, single point] |
| Cc1ccccc1CNC(=O)c1ccc(NC(=O)N2CCCCc3ccccc32)cc1 | inactive |
| CCS(=O)(=O)c1ccc2oc([C@H]3CCN(C(C)C)C3)nc2c1 | inconclusive: 12.6 µM [inhibitor, single point] |
| CC(C)c1noc([C@@H]2C[C@H](NC(=O)C3CCCCC3)CN2C)n1 | inconclusive: 31.6 µM [inhibitor, single point] |
| CCc1ccccc1NC(=O)Cn1c(=O)n(Cc2ccccc2)c(=O)c2c(C)c(C(=O)N(C)C)sc21 | active: 4.47 µM |
| Cc1ccccc1CN1c2ccccc2-c2nc(SCC(=O)c3ccc(Cl)cc3)ncc2S1(=O)=O | inactive |
| CCN1C(=O)C2CC3(CCN(C(=O)c4ccc(Cn5cncn5)o4)CC3)CN2C1=O (configuration not stated) | inconclusive: 20 µM [inhibitor, single point] |

| Structure (SMILES) | Potency |
| --- | --- |
| COCCN1CCCC2(CCN(c3nc(C)nc4sccc34)C2)C1=O (configuration not stated) | inconclusive: 7.08 µM [inhibitor, partial curve, poor fit] |
| COc1ccc(Br)cc1C1CC(=O)Nc2c1c(C)nn2-c1nc(C)cc(C)n1 (configuration not stated) | inconclusive: 8.91 µM [inhibitor, partial curve] |
| COc1ccc(C(=O)N2CCCC(c3nc(-c4ccccc4)no3)CCNC(=O)CC2)c(OC)c1 (configuration not stated) | active: 7.08 µM |
| CC(CCc1ccco1)NC(=O)CN1CCCc2nc(-c3ccccc3)ncc2C1=O (configuration not stated) | inactive |
| Cc1c(Cl)cccc1NC(=O)NCC1CCOCC1 | inactive |
| Cc1ccc(C)c(-c2csc(-c3c(N)c(C(=O)c4ccc5c(c4)OCO5)n4ccccc34)n2)c1 | inconclusive: 17.8 µM [inhibitor, single point] |
| Cc1ccc(CN2CCC(N3CCCNC3=O)CC2)cc1 | inactive |
| CN(C)Cc1nnc(C2CC(NC(=O)c3ccc4scnc4c3)C2)n1C (configuration not stated) | inconclusive: 12.6 µM [inhibitor, partial curve] |
| Cc1ccsc1CN(Cc1ccc(CN(C)S(C)(=O)=O)o1)CC(C)C | active: 8.91 µM |
| Cc1cnc(C(=O)N[C@@H]2CCC[C@@H]2C(=O)Nc2ccc(C)c(F)c2)cn1 | inconclusive: 5.01 µM [inhibitor, partial curve, poor fit] |
| COCCCNC(=O)N1CCCN(Cc2ccncc2)C(c2ccccc2)CC(=O)NCC1 (configuration not stated) | inconclusive: 20 µM [inhibitor, single point] |
| COC(=O)[C@@H]1Cc2c([nH]c3ccccc23)[C@@H]2C[C@@H](NCCNC(C)=O)C[C@@H](c3cccc(Cl)c3)N12 | active: 11.2 µM |
| COCCn1c(C)cnc1CCNC(=O)c1ccc(OC)nc1 | inactive |
| Cc1oc(-c2ccc(C(=O)NCc3ccc(N(C)C)cc3)cc2)nc1COc1ccccc1 | inconclusive: 11.2 µM [inhibitor, single point] |
| Cc1ccc(CN2CCSc3ccc(C(=O)Nc4ccc(F)cc4F)cc32)cc1 | inconclusive: 17.8 µM [inhibitor, single point] |
| O=C1NCCCCCN(C(=O)Cc2ccccc2)[C@@H]2C[C@@H](C(=O)N3CCc4ccccc4C3)C[C@H]12 | inconclusive: 2.82 µM [inhibitor, full curve, poor fit] |
| O=C1c2c(nc(CNCc3cnccn3)n2Cc2ccccc2)NCCN1Cc1cccc(Cl)c1 | active: 2.24 µM |
| COCCOCC(=O)N1CC(Oc2ccccc2-c2nc(C3CC3)no2)C1 | inactive |
| O=C(NCc1nnc2cc(-c3nc(C4CC4)no3)ccn12)c1ccc2[nH]ccc2c1 | inconclusive: 3.98 µM [inhibitor, single point] |
| CC(=O)N1CCCC1c1nc(C2CN(Cc3ccc(F)c(Cl)c3)C2)no1 (configuration not stated) | inconclusive: 11.2 µM [inhibitor, single point] |
| CCN(CC)c1cc(C)nc2nc(-c3ccc(C)cc3)nn12 | inconclusive: 0.0282 µM [inhibitor, full curve] |
